Experimental data published in PMC12820563.
The other results are listed elsewhere or left out. The list includes weakly bound sequences.

target: T1, MBP-FoxP3dN (UniProt Q99JB6); test: PD-seq (MBP pull-down with sequencing); details: 20 mM Tris-HCl pH 7.5, 100 mM NaCl, 1.5 mM MgCl2, 0.4 uM protein, 0.1 uM dsDNA library, 30 min, room temperature, amylose pull-down; high values mean tight binding; double strand, one strand shown
T1 sequence: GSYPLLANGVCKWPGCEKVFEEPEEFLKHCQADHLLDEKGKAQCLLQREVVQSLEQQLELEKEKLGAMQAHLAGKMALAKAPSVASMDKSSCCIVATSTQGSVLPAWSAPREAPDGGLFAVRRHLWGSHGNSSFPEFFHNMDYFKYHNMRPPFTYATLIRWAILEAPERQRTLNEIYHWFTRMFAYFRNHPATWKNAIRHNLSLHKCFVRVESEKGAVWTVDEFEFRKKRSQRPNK

Row | Sequence | binding signal (RPM ratio (pull-down/input))
1 | GATGATTGTTCTCCCAGCTGATGAATTAATATAGTCGAGTAAACAAATTTTCCTAATCTTTCTGTTCAAGCGCCATCTAC | 0.614
2 | GATGATTGTTCTCCCAGCTGATGAATTGAGACGCTCGAGTAAACAAATTTTCCTAATCTTTCTGTTCAAGCGCCATCTAC | 0.414
3 | GATGATTGTTCTCCCAGCTGATGAATTGAATATGTCGAGTAAACAAATTTTCCTAATCTTTCTGTTCAAGCGCCATCTAC | 0.689
4 | GATGATTGTTCTCCCAGCTGATGAATTTGGTCTCTCGAGTAAACAAATTTTCCTAATCTTTCTGTTCAAGCGCCATCTAC | 0.705
5 | GATGATTGTTCTCCCAGCTGATGAATTCCCGGCATCGAGTAAACAAATTTTCCTAATCTTTCTGTTCAAGCGCCATCTAC | 0.52
6 | GATGATTGTTCTCCCAGCTGATGAATTGACATTGTCGAGTAAACAAATTTTCCTAATCTTTCTGTTCAAGCGCCATCTAC | 0.658
7 | GATGATTGTTCTCCCAGCTGATGAATTCGAGAGCTCGAGTAAACAAATTTTCCTAATCTTTCTGTTCAAGCGCCATCTAC | 0.192
8 | GATGATTGTTCTCCCAGCTGATGAATTCTAGGTTTCGAGTAAACAAATTTTCCTAATCTTTCTGTTCAAGCGCCATCTAC | 0.456
9 | GATGATTGTTCTCCCAGCTGATGAATTCCAAGAATCGAGTAAACAAATTTTCCTAATCTTTCTGTTCAAGCGCCATCTAC | 0.156
10 | GATGATTGTTCTCCCAGCTGATGAATTTATTCACTCGAGTAAACAAATTTTCCTAATCTTTCTGTTCAAGCGCCATCTAC | 0.821
11 | GATGATTGTTCTCCCAGCTGATGAATTAGTCGCGTCGAGTAAACAAATTTTCCTAATCTTTCTGTTCAAGCGCCATCTAC | 0.919
12 | GATGATTGTTCTCCCAGCTGATGAATTGAAGGTGTCGAGTAAACAAATTTTCCTAATCTTTCTGTTCAAGCGCCATCTAC | 0.428
13 | GATGATTGTTCTCCCAGCTGATGAATTCGCCGTCTCGAGTAAACAAATTTTCCTAATCTTTCTGTTCAAGCGCCATCTAC | 0.497
14 | GATGATTGTTCTCCCAGCTGATGAATTGAAATACTCGAGTAAACAAATTTTCCTAATCTTTCTGTTCAAGCGCCATCTAC | 0.437
15 | GATGATTGTTCTCCCAGCTGATGAATTGCGATCGTCGAGTAAACAAATTTTCCTAATCTTTCTGTTCAAGCGCCATCTAC | 0.79
16 | GATGATTGTTCTCCCAGCTGATGAATTCTAAGTGTCGAGTAAACAAATTTTCCTAATCTTTCTGTTCAAGCGCCATCTAC | 0.48
17 | GATGATTGTTCTCCCAGCTGATGAATTGGCGACTTCGAGTAAACAAATTTTCCTAATCTTTCTGTTCAAGCGCCATCTAC | 0.807
18 | GATGATTGTTCTCCCAGCTGATGAATTAGGGTCTTCGAGTAAACAAATTTTCCTAATCTTTCTGTTCAAGCGCCATCTAC | 0.666
19 | GATGATTGTTCTCCCAGCTGATGAATTACGCATTTCGAGTAAACAAATTTTCCTAATCTTTCTGTTCAAGCGCCATCTAC | 6.65
20 | GATGATTGTTCTCCCAGCTGATGAATTATCTAAGTCGAGTAAACAAATTTTCCTAATCTTTCTGTTCAAGCGCCATCTAC | 0.246
21 | GATGATTGTTCTCCCAGCTGATGAATTCACAAGTTCGAGTAAACAAATTTTCCTAATCTTTCTGTTCAAGCGCCATCTAC | 0.282

Row | Sequence | binding signal (RPM ratio (pull-down/input))
22 | GATGATTGTTCTCCCAGCTGATGAATTGCTAAAGTCGAGTAAACAAATTTTCCTAATCTTTCTGTTCAAGCGCCATCTAC | 0.386
23 | GATGATTGTTCTCCCAGCTGATGAATTAGAGTGCTCGAGTAAACAAATTTTCCTAATCTTTCTGTTCAAGCGCCATCTAC | 0.527
24 | GATGATTGTTCTCCCAGCTGATGAATTAGCGGTATCGAGTAAACAAATTTTCCTAATCTTTCTGTTCAAGCGCCATCTAC | 0.625
25 | GATGATTGTTCTCCCAGCTGATGAATTGATTAGTTCGAGTAAACAAATTTTCCTAATCTTTCTGTTCAAGCGCCATCTAC | 1.87
26 | GATGATTGTTCTCCCAGCTGATGAATTAATTGCGTCGAGTAAACAAATTTTCCTAATCTTTCTGTTCAAGCGCCATCTAC | 1.46
27 | GATGATTGTTCTCCCAGCTGATGAATTACTTACATCGAGTAAACAAATTTTCCTAATCTTTCTGTTCAAGCGCCATCTAC | 0.574
28 | GATGATTGTTCTCCCAGCTGATGAATTGGTCCTCTCGAGTAAACAAATTTTCCTAATCTTTCTGTTCAAGCGCCATCTAC | 0.368
29 | GATGATTGTTCTCCCAGCTGATGAATTAGCTAGATCGAGTAAACAAATTTTCCTAATCTTTCTGTTCAAGCGCCATCTAC | 0.34
30 | GATGATTGTTCTCCCAGCTGATGAATTGCGAGCATCGAGTAAACAAATTTTCCTAATCTTTCTGTTCAAGCGCCATCTAC | 1.29
31 | GATGATTGTTCTCCCAGCTGATGAATTTACGCTTTCGAGTAAACAAATTTTCCTAATCTTTCTGTTCAAGCGCCATCTAC | 1.32
32 | GATGATTGTTCTCCCAGCTGATGAATTAAATGTCTCGAGTAAACAAATTTTCCTAATCTTTCTGTTCAAGCGCCATCTAC | 0.871
33 | GATGATTGTTCTCCCAGCTGATGAATTACATATCTCGAGTAAACAAATTTTCCTAATCTTTCTGTTCAAGCGCCATCTAC | 0.928
34 | GATGATTGTTCTCCCAGCTGATGAATTATTCCAATCGAGTAAACAAATTTTCCTAATCTTTCTGTTCAAGCGCCATCTAC | 0.373
35 | GATGATTGTTCTCCCAGCTGATGAATTACGTATGTCGAGTAAACAAATTTTCCTAATCTTTCTGTTCAAGCGCCATCTAC | 2.23
36 | GATGATTGTTCTCCCAGCTGATGAATTCTTGCGCTCGAGTAAACAAATTTTCCTAATCTTTCTGTTCAAGCGCCATCTAC | 0.482
37 | GATGATTGTTCTCCCAGCTGATGAATTAGCGTACTCGAGTAAACAAATTTTCCTAATCTTTCTGTTCAAGCGCCATCTAC | 1.26
38 | GATGATTGTTCTCCCAGCTGATGAATTGCAGGCGTCGAGTAAACAAATTTTCCTAATCTTTCTGTTCAAGCGCCATCTAC | 0.915
39 | GATGATTGTTCTCCCAGCTGATGAATTCCGCAGGTCGAGTAAACAAATTTTCCTAATCTTTCTGTTCAAGCGCCATCTAC | 0.841
40 | GATGATTGTTCTCCCAGCTGATGAATTGATTCCATCGAGTAAACAAATTTTCCTAATCTTTCTGTTCAAGCGCCATCTAC | 0.42
41 | GATGATTGTTCTCCCAGCTGATGAATTAGACCGATCGAGTAAACAAATTTTCCTAATCTTTCTGTTCAAGCGCCATCTAC | 0.254
42 | GATGATTGTTCTCCCAGCTGATGAATTAGCTTAATCGAGTAAACAAATTTTCCTAATCTTTCTGTTCAAGCGCCATCTAC | 0.382

Row | Sequence | binding signal (RPM ratio (pull-down/input))
43 | GATGATTGTTCTCCCAGCTGATGAATTTGCGTGGTCGAGTAAACAAATTTTCCTAATCTTTCTGTTCAAGCGCCATCTAC | 3.67
44 | GATGATTGTTCTCCCAGCTGATGAATTCTATAATTCGAGTAAACAAATTTTCCTAATCTTTCTGTTCAAGCGCCATCTAC | 0.441
45 | GATGATTGTTCTCCCAGCTGATGAATTTTTAACTTCGAGTAAACAAATTTTCCTAATCTTTCTGTTCAAGCGCCATCTAC | 0.269
46 | GATGATTGTTCTCCCAGCTGATGAATTACCGCAATCGAGTAAACAAATTTTCCTAATCTTTCTGTTCAAGCGCCATCTAC | 2.61
47 | GATGATTGTTCTCCCAGCTGATGAATTGTTCCTTTCGAGTAAACAAATTTTCCTAATCTTTCTGTTCAAGCGCCATCTAC | 0.426
48 | GATGATTGTTCTCCCAGCTGATGAATTCTGGATATCGAGTAAACAAATTTTCCTAATCTTTCTGTTCAAGCGCCATCTAC | 0.541
49 | GATGATTGTTCTCCCAGCTGATGAATTCTTCGGATCGAGTAAACAAATTTTCCTAATCTTTCTGTTCAAGCGCCATCTAC | 0.185
50 | GATGATTGTTCTCCCAGCTGATGAATTGGGATAGTCGAGTAAACAAATTTTCCTAATCTTTCTGTTCAAGCGCCATCTAC | 0.431
51 | GATGATTGTTCTCCCAGCTGATGAATTACCTTATTCGAGTAAACAAATTTTCCTAATCTTTCTGTTCAAGCGCCATCTAC | 0.353
52 | GATGATTGTTCTCCCAGCTGATGAATTGGACATATCGAGTAAACAAATTTTCCTAATCTTTCTGTTCAAGCGCCATCTAC | 0.453
53 | GATGATTGTTCTCCCAGCTGATGAATTCCCATAGTCGAGTAAACAAATTTTCCTAATCTTTCTGTTCAAGCGCCATCTAC | 0.234
54 | GATGATTGTTCTCCCAGCTGATGAATTGCGCCCGTCGAGTAAACAAATTTTCCTAATCTTTCTGTTCAAGCGCCATCTAC | 3.12
55 | GATGATTGTTCTCCCAGCTGATGAATTTTTTAAATCGAGTAAACAAATTTTCCTAATCTTTCTGTTCAAGCGCCATCTAC | 0.217
56 | GATGATTGTTCTCCCAGCTGATGAATTGCGAAAATCGAGTAAACAAATTTTCCTAATCTTTCTGTTCAAGCGCCATCTAC | 0.404
57 | GATGATTGTTCTCCCAGCTGATGAATTCAACTCGTCGAGTAAACAAATTTTCCTAATCTTTCTGTTCAAGCGCCATCTAC | 0.296
58 | GATGATTGTTCTCCCAGCTGATGAATTGTTCCGCTCGAGTAAACAAATTTTCCTAATCTTTCTGTTCAAGCGCCATCTAC | 0.333
59 | GATGATTGTTCTCCCAGCTGATGAATTATTCGATTCGAGTAAACAAATTTTCCTAATCTTTCTGTTCAAGCGCCATCTAC | 0.442
60 | GATGATTGTTCTCCCAGCTGATGAATTTATGAGTTCGAGTAAACAAATTTTCCTAATCTTTCTGTTCAAGCGCCATCTAC | 3.06
61 | GATGATTGTTCTCCCAGCTGATGAATTTATAAAATCGAGTAAACAAATTTTCCTAATCTTTCTGTTCAAGCGCCATCTAC | 0.293
62 | GATGATTGTTCTCCCAGCTGATGAATTCCCGTGGTCGAGTAAACAAATTTTCCTAATCTTTCTGTTCAAGCGCCATCTAC | 0.283
63 | GATGATTGTTCTCCCAGCTGATGAATTATACGATTCGAGTAAACAAATTTTCCTAATCTTTCTGTTCAAGCGCCATCTAC | 0.442
